According to paper PMC12136788:
The other results are listed elsewhere or left out.

T1: UNK ZnF1-3 (human, UniProt Q9C0B0 31-174)
T1 sequence: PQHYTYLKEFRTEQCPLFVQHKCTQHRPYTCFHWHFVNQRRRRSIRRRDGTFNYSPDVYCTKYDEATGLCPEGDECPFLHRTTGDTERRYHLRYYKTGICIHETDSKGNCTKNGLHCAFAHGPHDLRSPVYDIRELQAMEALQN

B1: chr17:24830180:24830181:-_ENSMUSG00000040888_ENSMUST00000046839|mus_hu|FALSE|FALSE (ssRNA)
RNA: GGGAGUUCUACAGUCCGACGAUCAAUAUACUGAAGCCAGGUUCUCAGUCACUUCAGCGUUUCAUUUGGGCUUCAAACUCUGAUGAAGUGAGCCCCACGAAUCCCCUGUGGACAGGCAUGACACAACGCUGGCAGGCAUGUGCCCAACAGAGGAUUGAGCAUCA
B2: 37501169_37502713_236_3pUTR_ENSMUSG00000026915_ENSMUST00000072186|mouse|control|control (ssRNA)
RNA: GGGAGUUCUACAGUCCGACGAUCCAUAACAUGGCGAUCAUCAUUGGCAAAAGAUCUAAUAGAUCUCAUGGUUUCCUAUGGUAUUUUAGCUUCUUUUUCCGAUCCUUUUCUCUCUUUCUUGUCGUCUUCACUAGACACUGUUUUCAACAGAGGAUUGAGCAUCA
B3: chr1:39494564:39494565:+_ENSG00000168653_ENST00000372967|hu_hu|hu_hu_hu_mus_True|18_98 (ssRNA)
RNA: GGGAGUUCUACAGUCCGACGAUCAUGCAUUCGCCUCAUCGUUUUCUACCGAAGCAAGCACUCUUCGAAGUCAUCGAACUCUAUCUUGCACUCCUUUUUCGCCCGGGUCCCACCGAUUCCAUGUGCACACUCUAUCCACUCUUUCAACAGAGGAUUGAGCAUCA
B4: chr7:135832278:135832279:+_ENSMUSG00000042105_ENSMUST00000118605|mus_hu|FALSE|FALSE (ssRNA)
RNA: GGGAGUUCUACAGUCCGACGAUCAAGCUGCUCUAUUCGUUUUUGUUUUCCCGCCACUGGGGCAAGCCCUCCUUCCACACUAUGAAGACGAAAAUUGCCAGCACCACAUGAAGCCCGACCACUGCAACAAUGGUCGCAUAAAAGCAACAGAGGAUUGAGCAUCA
B5: chr20:37186997:37186998:+_ENSG00000170471_ENST00000397040|hu_hu|FALSE|FALSE (ssRNA)
RNA: GGGAGUUCUACAGUCCGACGAUCAUCAAAAAAUCCAGGUAUCGUGGAAUCAAGUGCAAUAAGGUGAGGAGGUAGACGACUAUUUGCAGGUUCCUUCAGUGCUUCUAAGGACAAAAAUCCAAAGUGUGAGAGAAAAAGGCGGGCCAACAGAGGAUUGAGCAUCA
B6: 25678777_25679749_507_CDS_ENSG00000077097_ENST00000264331|human|control|control (ssRNA)
RNA: GGGAGUUCUACAGUCCGACGAUCUUUUGCACCAUAACCAUUACGACCACCUGUAACUUUUUUCUCAUCAUCAUCAUAGUUACUGGAUGUUAAAAGCUGUCCAAAAAUUAAAGCAGGAACAUAAACUUUCUCUACCUUGUGUUCCAACAGAGGAUUGAGCAUCA
B7: chr18:52893488:52893489:-_ENSG00000196628_ENST00000354452|hu_hu|hu_hu_hu_mus_True|18_38 (ssRNA)
RNA: GGGAGUUCUACAGUCCGACGAUCUAUUUAGACCAUUUCCGCGGAGUUAUGGCAUUUACUCAGUGCUGAUAGGUGGAAAAACUACUUCAACAGGGAUUUUUUUUUUUCUUAAUACAUGCCAAGAAUUUGUGGCUGUCAAAACAGCAACAGAGGAUUGAGCAUCA
B8: chr9:72186818:72186819:+_ENSMUSG00000038535_ENSMUST00000098576|mus_hu|FALSE|FALSE (ssRNA)
RNA: GGGAGUUCUACAGUCCGACGAUCUUUUUUUAAUUCAGAAAGGUGCUCAGAAGUUGGGAUACAAACAGAAACUUUCUGCAUUACAACUUGGCAAGUAUGAGUUUUAUGUUGACUUAAGUGUGUAGCCAUAUUAUCUAAGCCAGACAACAGAGGAUUGAGCAUCA
B9: chr3:9412954:9412955:+_ENSG00000134077_ENST00000452837|hu_mus|hu_hu_hu_mus_False|48_68 (ssRNA)
RNA: GGGAGUUCUACAGUCCGACGAUCGGUUGAUAUCUCUUCUUUGAUGGCUGGAUUUUCAUAAUAGUCCAAGAUAUGAGAAUCUGAAGUAUGGCUAGUGUGCUUUUUCUUACCAUCUUUCUCAUCUGCUUUGUCUCCUUGUCCACACAACAGAGGAUUGAGCAUCA
B10: 13205954_13206074_1622_CDS_ENSG00000107186_ENST00000319217|human|control|control (ssRNA)
RNA: GGGAGUUCUACAGUCCGACGAUCUUUUGUGACGUCUUCCCUUGACAUGAGCUCGGCUUCCUGCUUCAUUCCUCUCCUCAUUAGUGUCAGGAGCACAGUUUGUCCUGUAUGUCGCAAUACCUCUACUGCUUGCUGAUUAGUAAACAACAGAGGAUUGAGCAUCA
B11: chr3:57646030:57646031:-_ENSMUSG00000027805_ENSMUST00000066882|mus_mus|FALSE|FALSE (ssRNA)
RNA: GGGAGUUCUACAGUCCGACGAUCUUAAAUCUGUACAUUAUCCACAAUGCCCAAACAAUAGAAGCAAUACUAGAAUGUCCCUAAGGUAGUGCCAUUCGAAAGGAAAUCCAUCUCACAAUAGCAACAGUUCAUUUUAACAAUAGUCAACAGAGGAUUGAGCAUCA
B12: 62054583_62054703_1311_3pUTR_ENSMUSG00000020075_ENSMUST00000045866|mouse|control|control (ssRNA)
RNA: GGGAGUUCUACAGUCCGACGAUCUAAAAUUUCUUCCACUUGAUCAGCAAAACCCAUAUCCAACAUCUGGUCGACUUCAUCCAGGACAACAUGUUUAAGUUUGGUGAGAUCUAGCUUGCCAUUCUGCAAGUGGUCUUUAAUACGCAACAGAGGAUUGAGCAUCA
B13: 37417975_37418095_810_CDS_ENSG00000185917_ENST00000332131|human|control|control (ssRNA)
RNA: GGGAGUUCUACAGUCCGACGAUCGUACACGGCUCUGGUGUUGACGGUGCACCAAGCCCACAGCAGGGCACUGUAGCUGAAGAUGCUGUCAACAGCCUCCGCAAACAGAGGCUGCAGAGAAGAGAAAAAGUCUCUGGAGGAAGCCAACAGAGGAUUGAGCAUCA
B14: chr7:141441981:141441982:+_ENSG00000106028_ENST00000265304|hu_mus|hu_hu_hu_mus_False|18_28 (ssRNA)
RNA: GGGAGUUCUACAGUCCGACGAUCCUCAUGUCUUACAAACUGACGAAAUACCUGUAACACAGGUCUUCGAAACAUGGCUUCUGUUUUUCUUACAACCUAAUCUUUAGUUAGGCUUUUCCUGACGAUCAGAAAAGAGAAAAAUGACAACAGAGGAUUGAGCAUCA

target: T1, UNK ZnF1-3; assay: nsRBNS (natural sequence RNA bind-n-seq); RBNS binding buffer (assumed for nsRBNS): 25 mM Tris pH 7.5, 150 mM KCl, 3 mM MgCl2, 0.01% Triton X-100, 500 ug/ml BSA, 20 U/ml SUPERase-In, 4 C; UNK is unkempt and MSI1 is Musashi-1; names of the RNAs are library labels; protein concentration not given here; high values mean tight binding

Row | Binder | binding signal
1 | B1 | 0.828 enrichment R
2 | B2 | 0.526 enrichment R
3 | B3 | 0.627 enrichment R
4 | B4 | 1.53 enrichment R
5 | B5 | 1.76 enrichment R
6 | B6 | 0.963 enrichment R
7 | B7 | 1.13 enrichment R
8 | B8 | 0.988 enrichment R
9 | B9 | 0.38 enrichment R
10 | B10 | 0.487 enrichment R
11 | B11 | 0.827 enrichment R
12 | B12 | 1.34 enrichment R
13 | B13 | 1.05 enrichment R
14 | B14 | 0.515 enrichment R
